In PubChem BioAssay AID526 (National Center for Advancing Translational Sciences (NCATS), 2006):
In all, about 67,000 compounds went through this assay and fewer than 10 were called active. Inconclusive results, whose numbers are uncertain, are shown with a selection of clear calls. The call rests on the fitted dose curve; in most records, active means well fitted activation curve with a large enough effect (not every such curve was filed as active); inconclusive means small, poorly fitted or top-dose-only effect, or another doubt; inactive means no such curve, though single readings can be large or run the other way.

Test: Ubiquitin-GFP Assay
Details: Ubiquitin-GFP reporter cells, proteasome inhibition, GFP fluorescence; activation (GFP accumulation): at 45.9 µM (top of the series), untreated = 0%, 10 µM MG-132 = 100% unless noted
Method in brief: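 Proteasome block read as GFP accumulation: ubiquitin(G76V)-GFP U2OS cells exposed to compound (2.9 nM–46 uM) for 4 hr at 37 C. Normalization used untreated cells as 0% and 10 uM MG-132 as 100%; concentration-response curves fitted.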

| SMILES | activation (GFP accumulation) |
| --- | --- |
| O=C(CC(=O)N1CCN(c2ccccn2)CC1)Nc1ccc2nc3n(c(=O)c2c1)CCCCC3 | inactive |
| O=C(O)C1C2C=CC(C2)C1C(=O)N1CCOCC1 (stereo not given) | inconclusive: -7.46% [activator] |
| COc1ccc(-c2nc3cnc(N4CCN(C)CC4)nc3n(Cc3cccs3)c2=O)cc1 | inconclusive: 136% [activator] |
| Cc1nn(Cc2ccc(Cl)cc2Cl)c(C)c1NC(=O)c1nc2n(n1)C(C(F)F)CC(C)N2 (stereo not given) | inconclusive: 20% [activator] |
| CN1C(=O)CC(N2CCN(CC(=O)N3CCCC3)CC2)C1=O (stereo not given) | inconclusive: 31.7% [activator] |
| O=C(NCCc1ccccn1)C1CC(=O)N(Cc2ccccc2Cl)C1 (stereo not given) | inconclusive: 24.2% [activator] |
| Cn1c(C(=O)OC(C(=O)NC2CCCC2)c2ccncc2)cc2sccc21 (stereo not given) | inactive |
| O=C(O)CCc1c2ccc(=O)c(O)c-2oc2c(O)c(O)ccc12 | inactive: -1.84% [at 9.17 µM, untreated = 0%, 10 µM MG-132 = 100%] |
| COC(=O)CN(c1ccccc1C)S(C)(=O)=O | inconclusive: -1.49% [activator] |
| CCOC(=O)C1=C(C)N(C)C(C)=C(C(=O)OCC)C1c1cccnc1 | inconclusive: 33.3% [activator] |
| CCc1nnc(NC(=O)c2ccncc2)s1 | inconclusive: 39% [activator] |
| COc1ncc2nc(-c3cccs3)c(=O)n(-c3ccccc3)c2n1 | inconclusive: 120% [activator] |
| CCOC(=O)c1c(N)sc2c(O)c(Br)ccc12 | inconclusive: 5.99% [activator] |
| CN(Cc1cnn(C)c1)C(=O)c1cc2ccccc2oc1=O | inconclusive: 0.855% [activator] |
| CCN(CC)CC(O)COc1ccccc1C(=O)CCc1ccccc1 (stereo not given) | inconclusive: 3.33% [activator] |
| CN(C)Cc1ccccc1-c1cc(NCc2cccs2)ncn1 | inactive |
| COC(=O)c1sc(N2C(=O)C(O)=C(C(=O)c3ccc(C)o3)C2c2ccc(F)cc2)nc1C (stereo not given) | inconclusive: 30.6% [activator] [at 9.17 µM, untreated = 0%, 10 µM MG-132 = 100%] |
| Cn1cccc1C(=O)N1CCC2(CC1)CCN(c1ccncc1)CC2 | inactive |
| Cc1cc(NC(=O)c2sc(Nc3cccc(C(F)(F)F)c3)nc2N)no1 | inactive |
| Oc1ccc(Cc2cc(Cl)cc(Cl)c2O)cc1Cl | inactive: -4.62% [at 9.17 µM, untreated = 0%, 10 µM MG-132 = 100%] |
| CCOC(=O)c1ccccc1N1C(=O)CSC1=S | inconclusive: 7.4% [activator] [at 9.17 µM, untreated = 0%, 10 µM MG-132 = 100%] |
| COC(=O)c1cc(-c2ccccc2)n(CC(=O)O)c1C | inconclusive: 48.4% [activator] |
| COc1ccc(C(=O)c2cnc(C(C)C)n2C)cc1 | inconclusive: 30.1% [activator] |
| Cn1c2ccccc2c2c(C(=O)NCC3CCCO3)cn(C3CCCC3)c(=O)c21 (stereo not given) | inactive |
| Cc1ccccc1C(=O)c1cccn1CC(=O)N1CCCCCC1 | inconclusive: -7.39% [activator] |

| SMILES | activation (GFP accumulation) |
| --- | --- |
| O=c1cc(-c2ccccc2)oc2cc(O)cc(O)c12 | inactive |
| CCOC(=O)c1sc2nccc(N(C)C)c2c1N=CN(C)C | inconclusive: 33.8% [activator] |
| COCC(=O)N1CCC2(CC1)CN(c1ccccn1)C2 | inactive |
| O=C(O)COc1c(F)c(F)c(C(F)(F)F)c(F)c1F | inconclusive: -0.842% [activator] [at 9.17 µM, untreated = 0%, 10 µM MG-132 = 100%] |
| c1ccc(-c2ccccn2)nc1 | inactive |
| CCOC(=O)c1[nH]c(C)c(C(=O)N2CCN(c3ccc(F)cc3)CC2)c1C | inconclusive: 8.83% [activator] |
| CCN(CC)CCCCCOc1ccccc1OC | inconclusive: 18.4% [activator] |
| COc1ccc(Cl)cc1NC(=O)C1CCCN(S(=O)(=O)c2cccc3nonc23)C1 (stereo not given) | inconclusive: 30.7% [activator] |
| Cn1ccnc1C(O)c1cc(C(C)(C)C)c(O)c(C(C)(C)C)c1 (stereo not given) | inconclusive: 37.5% [activator] |
| CCOc1cc(N2CCOCC2)c(OCC)cc1NC(=O)c1nc2nc(C)cc(C)n2n1 | inactive |
| O=C(NC1c2ccccc2-c2ccccc21)N1CCOCC1 | inconclusive: 33.2% [activator] [at 9.17 µM, untreated = 0%, 10 µM MG-132 = 100%] |
| O=C(Nc1nccs1)c1c(O)c2cccc3c2n(c1=O)CCC3 | inactive |
| Cc1cc(C)nc(SCc2nnc(SCC(=O)Nc3ccc(C)c(C)c3)n2Cc2ccco2)n1 | inactive |
| COc1cc(NC(=O)C2CCCN2C(=O)C2CCC(C)CC2)cc(OC)c1OC (stereo not given) | inactive |
| COc1ccc(C)cc1NC(=O)c1[nH]c(C)c(C(C)=O)c1C | inconclusive: -3.03% [activator] |
| O=C(C1CCC(CNS(=O)(=O)c2cccc3cccnc23)CC1)N1CCCC1 (stereo not given) | inactive |
| CCN(CC)CCNC(=O)Cn1nc(-c2ccc(C)cc2)ccc1=O | inconclusive: 36.3% [activator] |
| O=C(C1CCCN(S(=O)(=O)c2cccc3nsnc23)C1)N1CC=C(c2ccccc2)CC1 (stereo not given) | inactive |
| CC(C)CC(=O)N1CCN(Cc2cccc(F)c2)CC1 | inconclusive: 41.8% [activator] |
| COc1cc(-c2noc(-c3ccccc3C(=O)NCc3ccco3)n2)cc(OC)c1OC | inconclusive: 12.9% [activator] |
| COC(=O)c1ccccc1NC(=O)c1cc(-c2cccc(OC)c2)on1 | inconclusive: 36% [activator] |
| O=C(Nc1cc(C(F)(F)F)ccc1Cl)C1CCN(c2nnc(-n3cccc3)s2)CC1 | inconclusive: 35.1% [activator] |
| Fc1ccc(C2CC(c3ccc(F)cc3)n3ncnc3N2)cc1 (stereo not given) | inactive |
| CCCCNC(=O)NS(=O)(=O)c1ccc(NS(=O)(=O)c2ccccc2)cc1 | inconclusive: 15.4% [activator] |
| O=C(O)C1C2C=CC(C2)C1C(=O)NCCc1cccc(Cl)c1 (stereo not given) | inconclusive: 37% [activator] |
